For assay [1], the target named is T1, Plasma-derived human alpha-1 antitrypsin (Calbiochem, US) (human, UniProt P01009, N-glycans at asparagine 46, 83 and 247).
T1 construct: mature; also called Plasma alpha-1 antitrypsin; wild-type plasma-derived alpha-1 antitrypsin
As to the kind of experiment: equilibrium constant Ka=[EI]/[E]f/[I]f from elastase activity with AAA-pNA substrate. How it is done: (§1) Porcine pancreatic elastase (Calbiochem, Cat. 324682) and AAA-pNA (N-Succinyl-Ala-Ala-Ala-p-nitroanilide, Sigma, S4760) were used as an enzyme and a substrate, respectively, to measure the rate constants of the alpha-1 antitrypsin and variants thereof. More particularly, the porcine pancreatic elastase and the alpha-1 antitrypsin and variants thereof were mixed at the same molar ratio, and reacted at 25° C. for 120 seconds, 300 seconds, and 600 seconds. Thereafter, the AAA-pNA was added to the resulting reaction mixture, and measured for kinetics for 5 minutes at intervals of one minute. In the final reaction, the concentrations of the porcine pancreatic elastase and the alpha-1 antitrypsin and variants thereof were 20 nM, and the concentration of the AAA-pNA was 1 mM.
(§2) Also, the equilibrium constant of the alpha-1 antitrypsin and variants thereof was calculated using the following equation.

Assay [2] concerns the target T2, Recombinant wild-type human alpha-1 antitrypsin (subtype M3) expressed in CHO-K1 cells (T003) (human, UniProt P01009, N-glycans at asparagine 46, 83 and 247).
T2 construct: The protein was secreted from CHO-K1 cells and purified; also called pT003; wild-type human alpha-1 antitrypsin (T003)
The assay is described as above. As to the method:
as §1, §2

Assay [3] deals with T1, Plasma-derived human alpha-1 …. As to the kind of experiment: remaining elastase activity after 120, 300 and 600 s at equal molar ratio (20 nM each), AAA-pNA substrate, 25 C. As to the method:
as §1
(§3) Because the reaction of the porcine pancreatic elastase with the alpha-1 antitrypsin and variants thereof was an irreversible secondary reaction (Levenspiel O. Chemical reaction engineering, 2nd edition. 1972, Wiley, New York), the rate constant was calculated by the equation: 1/R=kaCE0t+1 [R=Remaining PPE activity, ka=Rate constant (M⁻¹ s⁻¹), CE0=Initial concentration of AAT (M), and t=Reaction time (seconds)]. The association rate constant (ka) was calculated using the activities of porcine pancreatic elastase remaining at each reaction time.

For assay [4], the target named is T2, Recombinant wild-type human alpha-1 …. Described as above. How it is done:
as §1, §3

B1: Porcine pancreatic elastase (Calbiochem, Cat. 324682) (enzyme, UniProt P00772 27-266, looked up)
chain: VVGGTEAQRNSWPSQISLQYRSGSSWAHTCGGTLIRQNWVMTAAHCVDRELTFRVVVGEHNLNQNDGTEQYVGVQKIVVHPYWNTDDVAAGYDIALLRLAQSVTLNSYVQLGVLPRAGTILANNSPCYITGWGLTRTNGQLAQTLQQAYLPTVDYAICSSSSYWGSTVKNSMVCAGGDGVRSGCQGDSGGPLHCLVNGQYAVHGVTSFVSRLGCNVTRKPTVFTRVSAYISWINNVIASN
notes: Commercial enzyme; also called PPE
For the molecule B1, the figures for the Ka in assay [1] and in assay [2] were 2.6e+09 M⁻¹ and 3.56e+09 M⁻¹, respectively. In addition, the figures for the on-rate constant (kon) in assay [3] and in assay [4] were 540000 M⁻¹ s⁻¹ and 650000 M⁻¹ s⁻¹, respectively.

For the origin of these results see patent publication US20140371160A1 (ALTEOGEN, published 2014).
